This passage reports TGI and GI50 results from PubChem BioAssay (NCI).

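Each compound was tested at five concentrations against cells in 96-well plates for 48 hours. At the GI50, growth is halved. TGI: concentration producing complete growth inhibition.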 Where only a bound is given, the exact number is not on record here.

For this test, the system named is NCI-H322M lung. Kind of test: growth of human tumour cells (NCI), 48 h.
In the case of `COc1ccccc1NC(=O)C1=C(C)NC(C)=C(C(=O)Nc2ccccc2OC)C1c1cccc2c1OCO2`, the TGI is over 100 µM.

In turn, `O=C1O[C@]2(c3ccccc3)C(c3ccccc3)=C[C@]2(C(=O)c2ccccc2)C1=O` returned a TGI of over 100 µM.

In turn, `C[Si]12OCCCN(CCO1)CCO2` returned a TGI of over 100 µM.

In the case of `O=C(O)/C=C/C(=O)O`, the TGI is over 100 µM.

Take `NCCCCNC1(c2cc3ccccc3s2)CCCCC1`: the TGI came out at 16.4 µM.

In the case of `CC(C)(C)OC(=O)NCC(=O)N1CCCN(C(=O)CNC(=O)OC(C)(C)C)CC1`, the TGI is over 100 µM.

Take `CCOC(=O)C1=C(c2ccccc2)N(c2ccc(OC)cc2)[C@]2(C#N)C(O)=C(Cl)C(Cl)=C(O)[C@]12C#N`: the GI50 is 23 µM and the TGI was 66.7 µM.

Compound `O=C(c1ccccc1)N1C(=S)N(c2ccc([N+](=O)[O-])cc2)C(=Nc2ccccc2)C1=Nc1ccccc1` registered a TGI of over 100 µM.

With `CN(C)CCOC1(CC2CCCCC2)CCC(C(C)(C)C)CC1` (stereo unspecified), the TGI was determined as 19.5 µM.

`COc1ccc(C(=O)CC(c2ccc(OC)c(OC)c2)c2c(O)c3ccccc3oc2=O)cc1OC` (stereo unspecified) had a TGI of over 100 µM.

In the case of `Cc1ccc(C[P+](c2ccccc2)(c2ccccc2)c2ccccc2)cc1`, the GI50 is 3.01 µM and the TGI is over 52.6 µM.

With `Clc1ncnc2c1ncn2CCCCCCCCCCCCn1cnc2c(Cl)ncnc21`, the TGI amounted to 26.1 µM.

Consider `CCCCCCCCC/C=C1\CC(CO)(COC(=O)c2ccccc2)OC1=O` (stereo unspecified), for which the TGI amounted to 85.8 µM.

With `CN(C)CCn1c(=O)c2ccc3c4c(nn3CCN(C)C)c3ccccc3n(c1=O)c24`, the TGI is 1.71 µM.

In the case of `Cc1ccc2[nH]c(C(=O)NN3C(=O)C(C)SC34CCCCC4C)c(-c3ccccc3)c2c1` (stereo unspecified), the GI50 was 22.2 µM and the TGI is 51.4 µM.

Compound `CN1CC2CC(C1)c1cccc(=O)n1C2` (stereo unspecified) came in with a TGI of over 100 µM.

As for `C/C(N=Nc1nc2ccccc2o1)=C1/C=CC=CN1O`, the TGI stood at 73.3 µM.

For the compound `CCOC(=O)[C@H]1Nc2ccc(Cl)cc2[C@H]2c3ccccc3O[C@H]21`, the TGI is over 100 µM.
